One molecule from US7550150B2, “Methods of treating or preventing a disease, disorder or condition associated with a viral infection” (Barros Research Institute, priority 2005, dated 2009) can be followed below.

In this test the test system is Influenza A/NWS/33 (H1N1) virus. The conditions noted are these: for Mean Day to Death ± SD: mice dying prior to day 21.
Setting [1] is: 100 ng/mouse/day i.p. d-2, 0, 3, 6.
[2] abbreviates: 1,000 ng/mouse/day i.p. d0, 3, 6.
[3] abbreviates: 10,000 ng/mouse/day i.p. d0, 3, 6.

Like-named read-outs stand apart in the source and are kept apart here. Marks after values point to notes of the source that are not given here.

B1: rBBX-01: Recombinant Apicomplexa-related protein (ARP) having the sequence of SEQ ID NO:20; termed Barrogen, also called rBBX-01 or E1 (protein, listed as Eimeria tenella)
chain: GEEADTQAWDTSVREWLVDTGRVFAGGVASIADGCRLFGAAVEGEGNAWEELVKTNYQIEVPQEDGTSISVDCDEAETLRQAVVDGRAPNGVYIGGTKYKLAEVKRDFTFNDQNYDVAILGKNKGGGFLIKTPNENVVIALYDEEKEQNKADALTTALNFAEYLYQGGF
Turning to B1, the “Infected, Treated Mice Surv/Total” value reads like this: (100 ng/mouse/day i.p. d0 (4 h post-virus), 3, 6) 2/10; under setting [1], 0/10; (1,000 ng/mouse/day i.p. d0 (4 h post-virus), 3, 6) 3/10; (10,000 ng/mouse/day i.p. d0 (4 h post-virus), 3, 6) 5/10*. For the same molecule, the “Mean Day 11 SaO2 (% ± SD)” value is, setting by setting: (100 ng/mouse/day i.p. d0, 3, 6) 76.0 ± 1.9%; under setting [1], 75.3 ± 0.7%; under setting [2], 76.5 ± 1.9 %; under setting [3], 77.6 ± 3.0 %. In addition, the “Mean Day to Death ± SD” value came out at 12.1 ± 1.6 days (100 ng/mouse/day i.p. d0, 3, 6); 12.3 ± 1.2 days under setting [1]; 12.7 ± 2.7 days under setting [2]; 12.0 ± 1.4 days under setting [3]. This molecule registered a prevention of death (10,000 ng i.p. days 0, 3, 6) of 50%. Also, the “inhibition of lung virus titer” value is, setting by setting: (10,000 ng i.p. days 0, 3, 6, on both days 3 and 5) 0.2 loglo; (1,000 and 100 ng doses, day 3) 0.5 log10. Also, the “delay in mean day to death” value (1,000 and 100 ng doses) is recorded as “one”.
